Source: the supplement of paper PMC10126150
Sequences with one replicate were seen in a single cluster, so their values are uncertain.

These sequences were tested on ATP (assay: switch fluorescence ratio, 500 uM ATP over buffer (Cy3 cluster intensity, sum of 5 cycles each) (fold (ratio)); higher = stronger signal-on switching upon ATP binding; sequences stand for … in TCGTCGGCAGCGTCAGATGTGTATAAGAGACAGTTTTTTTTTTTTTTTTTTTTTTTTT…TC). Details: aptamer strand: ATP DNA aptamer (quencher-CACCTGGGGGAGTATTGCGGAGGAAGG + anchor), 100 nM annealed; ATP concentration: 500 uM; one replicate.
Procedure, shortened: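 Clusters carrying Cy3-labelled switching strands on a modified Illumina MiSeq flow-cell were annealed to 100 nM quencher-labelled ATP aptamer and imaged in selection buffer. They were imaged again after 15 min with 500 uM ATP at 22 °C, over five buffer/ATP cycles with NaOH stripping and re-annealing in between. For each cluster, the fluorescence ratio is the summed Cy3 intensity of the target cycles divided by that of the buffer cycles, averaged per switch-domain sequence. Clusters outside 100-1000 RFU were left out.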
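Note: ATP exposure 15 min at 22 °C before imaging.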

| Sequence | switch fluorescence ratio |
| --- | --- |
| CTTATAGGCG | 0.991 |
| GCCTTTATAC | 1.42 |
| TTCTAAGTGG | 0.967 |
| TTCCGTCATA | 1.18 |
| TTGAGCGTAG | 1.05 |
| CTGGTGTCGC | 0.968 |
| TCGTGCTCGT | 0.975 |
| GATTTGTCCA | 0.883 |
| GACCAAGCAT | 1.27 |
| ATAAGCTGTG | 0.967 |
| TACACCATTT | 1.05 |
| ACGGAAAAGG | 1.06 |
| CTGCTCGCAC | 4.19 |
| GAGTGCGGCA | 1.03 |
| TAGGGTGCCA | 0.946 |
| TCAGATATGC | 1.05 |
| TATGCTTGAA | 0.97 |
| TCAAGAGTGG | 1 |
| GGATGTTTAA | 1.02 |
| TTGAGGCATT | 2.32 |
| ACCTATTCAT | 1.01 |
| GCAGGGGGCT | 0.981 |
| TACGGTGTTT | 1.08 |

| Sequence | switch fluorescence ratio |
| --- | --- |
| CATCTTG | 1.01 |
| CAGGGTTTCC | 1.02 |
| ACAGATAATT | 1 |
| CTTACGAGGG | 0.976 |
| TCCGTTCT | 0.998 |
| GATTATGGCT | 0.988 |
| GGCAAACCTA | 1.04 |
| TCTCCCGCT | 1.16 |
| GTCCCCATTT | 1.12 |
| AGCTAGGCGG | 1.1 |
| AGGCGAGCCT | 0.997 |
| GGTGATCACA | 0.972 |
| CCCCGTGTCT | 1.16 |
| GGGACTCTGC | 1.02 |
| ACCATCGTAT | 1.46 |
| AAAGGGGTT | 0.979 |
| CCATGTTGGT | 0.989 |
| GGCAGGCCGT | 0.986 |
| TAGCTGAAC | 1.28 |
| ACACTCGGCC | 1.06 |
| ATTCGTGCGG | 1.01 |
| AACAGTCGCA | 1.01 |
| TCGGCACTGA | 1.04 |

| Sequence | switch fluorescence ratio |
| --- | --- |
| GCGATGGGCG | 0.989 |
| TACCTAGCGG | 0.997 |
| ATTGTTGCT | 0.98 |
| CATAGTACGG | 1.04 |
| AGCTGGGCGG | 0.915 |
| GCTTGTTTTG | 0.98 |
| GCATCCTCTG | 1.12 |
| TTCTTATA | 0.977 |
| AACGGACATA | 1.28 |
| CCAAGCACGG | 1.47 |
| AAGCGCGGGT | 0.993 |
| GTGGATAGAA | 0.993 |
| ATAGACTTCC | 1.07 |
| TCATTGTTC | 1.06 |
| ACAAAAGTTC | 1.02 |
| TGTCTAAAGA | 0.962 |
| ATTCAGTAGT | 0.985 |
| ACCGGTCTCT | 1.02 |
| GCCGCGGAA | 1.04 |
| TTAGCTATGC | 1.1 |
| CAGTGTGGCC | 0.976 |
| GTTACAAAAC | 0.977 |
| CTTGGATATC | 0.996 |

| Sequence | switch fluorescence ratio |
| --- | --- |
| ATGAAGGTCG | 1.02 |
| TTCAAGAGGG | 0.972 |
| TTGAAAACTT | 0.944 |
| TTAGAGACCT | 1.37 |
| GCTAGAAGTG | 1.01 |
| ATCTTCGATA | 1.02 |
| GCGTATGCAG | 0.982 |
| CCGGAGAAAT | 2.99 |
| TGCCTGGCGA | 1.02 |
| GATGAGTGTA | 0.93 |
| TAATGGCCAC | 0.983 |
| TTATTTAACA | 1.01 |
| GTCGCCTAGG | 1.13 |
| CGTGAGACGC | 0.967 |
| GCTACGTTGT | 1.02 |
| GCGCAACATA | 1.03 |
| TGCTCATAAA | 1.01 |
| ATACGGG | 1.06 |
| TTCCATGCAT | 1.12 |
| GGTATACGAA | 1 |
| TAACTTACCG | 1.17 |
| AGTGAGGGCA | 1.09 |
| ATGAAGCGTG | 0.983 |

| Sequence | switch fluorescence ratio |
| --- | --- |
| ATTTAGGGTC | 1.07 |
| ATAATCTGTC | 0.942 |
| GCCCTAATAA | 1.02 |
| CACATGAGGG | 0.999 |
| TCCCCACACA | 1.12 |
| TTCAGGTAGA | 1.09 |
| TCTCACTGTG | 1.04 |
| ATAAGTTGCA | 1.02 |
| CTAATAATAA | 1 |
| GGCATTTCAG | 0.956 |
| AGCGTTCGGT | 0.943 |
| ATTAAAAGGG | 0.994 |
| TTTAATGGCG | 1.8 |
| GTAAGCTGTG | 1 |
| AGTCTCGTTT | 0.987 |
| GGTGATCGGA | 0.941 |
| TGGCTATTG | 0.981 |
| TAAGTGGTTA | 0.992 |
| TTTGAATCCG | 1 |
| TCACGATATT | 1.17 |
| ACACTCAGGT | 1.31 |
| CACTAGGGTT | 1.15 |
| CTGTGCGGTC | 1.06 |

| Sequence | switch fluorescence ratio |
| --- | --- |
| CTCCCGTCGA | 1.58 |
| TTTTACAAAT | 1.79 |
| GCTACAACAG | 1.04 |
| CGGCAAATTG | 1.01 |
| AGTAGACTCG | 0.99 |
| TCTCAGGAGC | 1.04 |
| ACAAACCCG | 1.03 |
| GATTAACTTT | 1.04 |
| CGTGACGGGC | 0.857 |
| GGTAATCCAC | 1.06 |
| TATGCTCACC | 1.21 |
| GAGTAAAAAT | 1 |
| CATTGGAGCC | 0.956 |
| CTCGCGTGGG | 0.988 |
| CACGTCGGGA | 0.973 |
| GCATATTTTA | 1.01 |
| TCTATATAGC | 1.03 |
| TAGTCAAGAT | 1.05 |
| TGCAGCCCTA | 1.01 |
| GGCGGGACTC | 1.21 |
| TTATGTCAG | 0.983 |
| GGGTTGCAGG | 1.01 |
| TTTTAACGCA | 1.11 |

| Sequence | switch fluorescence ratio |
| --- | --- |
| TGTCGGAGGC | 1.04 |
| TATTATACGT | 1 |
| CGAATATATC | 1.02 |
| CGCGGGTACA | 1.04 |
| CCACCTCTCA | 1.07 |
| TCTGGAGTTA | 1.24 |
| TCACGGCCA | 1.16 |
| TTTTATCTGG | 0.999 |
| TGAAGAGAAA | 1.02 |
| GCTCGATGTA | 1.07 |
| CAAGGTCAGT | 0.957 |
| CAATGCTTTG | 0.989 |
| GAAAGAATCA | 0.987 |
| TCGAACGGGA | 1.35 |
| TAGAATACAC | 1.08 |
| CCGGCTAGA | 1.08 |
| TCTGTTGATC | 0.991 |
| AGGCGCAGAG | 0.985 |
| AGCTTGACAA | 1.05 |
